Source: a collection of fitness landscapes (doi:10.1126/science.1257360)
The list shows a part of the results.

B1: PhoQ; a variant is named by its letters at X, in order, P23837 (parent)
chain: MKKLLRLFFPLSLRVRFLLATAAVVLVLSLAYGMVALIGYSVSFDKTTFRLLRGESNLFYTLAKWENNKLHVELPENIDKQSPTMTLIYDENGQLLWAQRDVPWLMKMIQPDWLKSNGFHEIEADVNDTSLLLSGDHSIQQQLQEVREDDDDAEMTHSVAVNVYPATSRMPKLTIVVVDTIPVELKSSYMVWSWFIYVLSANLLLVIPLLWVAAWWSLRPIEALAKEVRELEEHNRELLNPATTRELTSLVRNLNRLLKSERERYDKYRTTLTDLTHSLKTPLXXLQXXLRSLRSEKMSVSDAEPVMLEQISRISQQIGYYLHRASMRGGTLLSRELHPVAPLLDNLTSALNKVYQRKGVNISLDISPEISFVGEQNDFVEVMGNVLDNACKYCLEFVEISARQTDEHLYIVVEDDGPGIPLSKREVIFDRGQRVDTLRPGQGVGLAVAREITEQYEGKIVAGESMLGGARMEVIFGRQHSAPKDE

Variants of: B1
Test: enrichment ratio after two sorts for PhoP signalling (ratio (wild type AVST 3.29)); higher = more functional
Conditions: with PhoP (E. coli)

Variant	enrichment ratio
ADHW	≤ 0.25
GHQF	≤ 0.25
DLDG	≤ 0.25
MIFD	≤ 0.25
DWND	≤ 0.25
VNAD	≤ 0.25
YHTE	≤ 0.25
MGDW	≤ 0.25
RDWL	≤ 0.25
KHAD	≤ 0.25
LTVD	≤ 0.25
WPCV	≤ 0.25
ILAH	≤ 0.25
HVSC	≤ 0.25
NSRP	≤ 0.25
RNDW	≤ 0.25
ARHN	≤ 0.25
DVWS	≤ 0.25
HMKQ	≤ 0.25
GVQR	≤ 0.25
HESH	≤ 0.25
SKAM	28
PHSE	≤ 0.25
LYIP	≤ 0.25
NNFP	≤ 0.25
FGIV	2.4

Variant	enrichment ratio
WVHN	≤ 0.25
GKEC	≤ 0.25
FSPK	≤ 0.25
LKPN	≤ 0.25
EKHK	≤ 0.25
TQVE	3.84
GNAM	35.8
YDQQ	≤ 0.25
GCYS	≤ 0.25
NPQF	≤ 0.25
RSKA	≤ 0.25
TRCV	5.74
TRQI	≤ 0.25
EAIF	≤ 0.25
HSMM	3.98
DYPI	≤ 0.25
KDPM	≤ 0.25
KARW	≤ 0.25
LPCA	≤ 0.25
VGST	≤ 0.25
EFDN	≤ 0.25
AIGD	≤ 0.25
DQDV	≤ 0.25
ATVN	19.4
AHYP	≤ 0.25
SHPI	≤ 0.25

Variant	enrichment ratio
ASLE	5.81
SMYM	2.21
LQPL	≤ 0.25
CTLL	0.613
TDLS	18
SSFM	5.86
EEPP	≤ 0.25
EAYK	≤ 0.25
LGGQ	≤ 0.25
MKQA	≤ 0.25
MYMW	≤ 0.25
GYGV	≤ 0.25
PENN	≤ 0.25
LSST	≤ 0.25
HVLK	≤ 0.25
SPHY	≤ 0.25
HPKI	≤ 0.25
EYGV	≤ 0.25
RCIF	≤ 0.25
VWVF	≤ 0.25
AYMG	≤ 0.25
FAWC	≤ 0.25
VWID	≤ 0.25
THCY	1.87
LMRQ	≤ 0.25
SWWD	≤ 0.25

Variant	enrichment ratio
RTCY	≤ 0.25
KDQF	≤ 0.25
RFWI	≤ 0.25
WRMN	≤ 0.25
LAWD	≤ 0.25
WYRL	≤ 0.25
AIYR	≤ 0.25
IQPC	≤ 0.25
SWSQ	≤ 0.25
PMFT	≤ 0.25
WNKD	≤ 0.25
WYTW	≤ 0.25
LHGL	≤ 0.25
PLKW	≤ 0.25
MPKF	≤ 0.25
KEAM	≤ 0.25
KAAP	≤ 0.25
YDGD	≤ 0.25
NWLK	≤ 0.25
DLHN	≤ 0.25
VWDI	≤ 0.25
AHPD	≤ 0.25
YRTI	≤ 0.25
HFFM	≤ 0.25
MYPL	≤ 0.25
ISYS	≤ 0.25

Variant	enrichment ratio
WRIA	≤ 0.25
EITT	≤ 0.25
IERL	≤ 0.25
KIFM	≤ 0.25
EVLM	≤ 0.25
EQVY	≤ 0.25
FEKW	≤ 0.25
IWQF	≤ 0.25
TTSS	15.9
NFPN	≤ 0.25
KDGS	≤ 0.25
KRRP	≤ 0.25
TMPL	≤ 0.25
ISDR	≤ 0.25
DVSL	≤ 0.25
AYST	≤ 0.25
RISD	≤ 0.25
ISVR	≤ 0.25
EQFP	≤ 0.25
EMNM	≤ 0.25
IMVF	≤ 0.25
TGIE	≤ 0.25
IPQA	≤ 0.25
HGLA	≤ 0.25
DPIK	≤ 0.25
TRFF	≤ 0.25

Variant	enrichment ratio
FKGW	≤ 0.25
YVWD	≤ 0.25
FFIH	≤ 0.25
YDVD	≤ 0.25
AHMQ	≤ 0.25
RPCT	≤ 0.25
RWNY	≤ 0.25
ITAA	≤ 0.25
FVFW	≤ 0.25
DANS	≤ 0.25
IRDT	≤ 0.25
HDDS	≤ 0.25
FALY	1.35
TRDL	≤ 0.25
DNGE	≤ 0.25
NQAM	≤ 0.25
HVRR	≤ 0.25
ELKA	≤ 0.25
GMCV	2.92
YQAR	≤ 0.25
IETH	≤ 0.25
GHDA	≤ 0.25
ALKR	≤ 0.25
